# According to the supplement of paper PMC11417369:
# ± gives the standard deviation of the averaged measurements. The list shows a part of the results.
# Tested on: PfAP2-I AP2 domain 3 (GST-tagged)
# Test: gcPBM binding intensity (ln(normalized median fluorescence intensity)); higher = stronger DNA binding
# Procedure, shortened: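 Binding intensity is defined as the maximum Masliner-normalised natural-log median intensity across replicate spots for either probe orientation. It was measured on an Agilent 4 × 180k array of primer-extended double-stranded 36-bp intergenic genomic probes and negative controls, to which GST-tagged P. falciparum DNA-binding domains made in E. coli were applied for 1 h in 1× PBS with 1% milk, 0.2 mg/ml BSA, 0.5% salmon testes DNA and 0.03% Triton X-100. Detection was by Alexa488 anti-GST antibody and scanning at 488 nm.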
row,Sequence,gcPBM binding intensity (ln)
1,AACGTCTTTTTTTTTTTTTTTCTTTTTTTTTTTATT [CACACA_negctrl_site303],7.3 ± 0.67
2,TCCTTTTGAACCCTTTTTCTCACAAGACCTTTATAT [TGCATGCA_negctrl_site413],8.01 ± 0.42
3,TTTCGTTGTGTATTTTGTACATATTTTTAATTATAT [XGTACX_site6687],7.88 ± 0.59
4,AATATAAATATAAATTGTACTTAAAAATTTCACGCA [XGTACX_site5234],7.54 ± 0.28
5,TTAAAAAACTATAATACACACCAAAAATATGCACAT [CACACA_site7079],9.44 ± 0.7
6,TTATTTCAAAGTTGTTGTACAAAAATATATTTATAA [XGTACX_site5226],8.02 ± 0.42
7,AAGAAAAAGATGCGCATACACACAGATGAATAACAA [CACACA_site1627],8.13 ± 0.87
8,TTTCTTTTTTAAATTAAAATTTTTTTTTTTTTCGGT [TGCATGCA_negctrl_site52],7.27 ± 0.51
9,AAAGGTGTATTTAATACACACGTGTCATTAAAATTG [CACACA_site4508],8.19 ± 0.4
10,TATATAAATTATGTGAGTACATAATTTAGAAGGAAC [XGTACX_site2807],7.97 ± 0.38
11,AAAAAAATAATGTACACACACATATATGTTTATATA [CACACA_site6234],8 ± 0.26
12,AATTAAAAAGTTTTTAATGTTTTTAATTTTTTCCAC [XGTACX_negctrl_site423],7.49 ± 0.48
13,ATTAATATTTAGACTTGTACATATATAATATATGTC [XGTACX_site3766],7.54 ± 0.29
14,CTTTTTTGTAATAACACACACACAAACAGAAAAAAT [CACACA_site2075],8.43 ± 0.42
15,ATAAAATATCAATACCGTACACAAGCAGGTAAAATA [XGTACX_site3719],7.82 ± 0.8
16,AAAAAAAAAAAAAAAACACACAGAAATATATATATA [CACACA_site4611],9.1 ± 0.14
17,AAAGAAGGGAAACACACACACACACCCACAAAAAAA [CACACA_site3766],8.17 ± 0.21
18,TTTATATATTTTAGGAGTACATTAAATTATACCTTA [XGTACX_site5600],7.83 ± 0.31
19,TGTATATATATTTATGCATGCTGTGTGTATTCTTTT [TGCATGCA_site74],7.89 ± 0.7
20,AATAAAAAAAAAATAAATTTAATAATAATAATAAAA [CACACA_negctrl_site569],7.16 ± 0.71
21,TATAACAAAAAAAAATAAAAAATAAAACTATATATA [CACACA_negctrl_site504],7.25 ± 0.56
22,TTTTTTTTTTATTCTTCACACATTTCCAATAAAAAA [CACACA_site5601],8.3 ± 0.75
23,ACCTAAAATAACTACACACACATAAAAAAAAAAAAA [CACACA_site2529],7.96 ± 0.39
24,GTTATTATATATATGTGTACTTAAAAATTTTATGTC [XGTACX_site6084],8.17 ± 0.45
